# Results published in PubChem BioAssay AID1460 (National Center for Advancing Translational Sciences (NCATS), 2008).
# About 5,800 (2.1%) of roughly 270,000 compounds were called active. Inconclusive means that the source gave no clear call. Such entries were picked first, then a sample of the others. Calls follow the shape of the dose curve; as a rule, active = well fitted inhibition curve with a large enough effect; inconclusive = small, poorly fitted or top-dose-only effect; inactive = flat fitted curve, though single readings scatter. Potencies of inconclusive entries are doubtful fits and often do not repeat.
# Target: Microtubule-associated protein tau (Homo sapiens) (UniProt P10636)
# Chain of UniProt P10636 (P10636 whole entry, looked up): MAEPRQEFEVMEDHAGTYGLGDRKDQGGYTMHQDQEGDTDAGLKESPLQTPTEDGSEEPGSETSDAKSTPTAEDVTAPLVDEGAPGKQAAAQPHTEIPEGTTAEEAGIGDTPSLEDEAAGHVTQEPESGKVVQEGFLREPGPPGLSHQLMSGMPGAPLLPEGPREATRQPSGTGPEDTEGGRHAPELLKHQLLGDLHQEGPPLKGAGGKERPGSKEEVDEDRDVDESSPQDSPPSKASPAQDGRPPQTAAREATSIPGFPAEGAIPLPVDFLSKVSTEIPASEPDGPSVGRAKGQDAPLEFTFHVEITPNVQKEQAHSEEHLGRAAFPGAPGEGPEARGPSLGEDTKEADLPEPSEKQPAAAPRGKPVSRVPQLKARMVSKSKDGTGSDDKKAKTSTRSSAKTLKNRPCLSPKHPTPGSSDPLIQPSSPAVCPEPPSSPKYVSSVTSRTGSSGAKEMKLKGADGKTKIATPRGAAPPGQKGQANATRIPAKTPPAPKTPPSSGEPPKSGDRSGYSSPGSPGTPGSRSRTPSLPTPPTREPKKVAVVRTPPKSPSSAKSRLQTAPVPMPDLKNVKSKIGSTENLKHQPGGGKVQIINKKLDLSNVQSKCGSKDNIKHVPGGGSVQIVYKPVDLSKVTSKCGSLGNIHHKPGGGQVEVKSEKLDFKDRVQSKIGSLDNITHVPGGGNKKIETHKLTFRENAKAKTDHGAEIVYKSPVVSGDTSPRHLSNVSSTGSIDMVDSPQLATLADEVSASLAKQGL
# Assay: qHTS for Inhibitors of Tau Fibril Formation, Thioflavin T Binding; also: nearly all actives have a fitted effect of over 55% in size
# Settings: recombinant tau K18 P301L (four-repeat tau fragment), heparin-induced fibrillization, ThT fluorescence; series mostly up to 57.4 µM; activity, negative = inhibition: at the top concentration
# Outline: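 K18 P301L tau (15 uM + 0.24 uM Alexa 594-tagged), heparin 20 uM, NaOAc pH 7, 6 h 37 C; ThT 30 uM, 1 h RT, ex 450/em 510 nm.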
# % is scaled to controls: 0 for no effect and ±100 for the full control effect; potency is read from the fitted curve at half-maximal effect; tags tell the direction and shape of the fitted curve.
SMILES,Potency,"activity, negative = inhibition"
Cn1nnc2c(N3CCN(c4cccc(Cl)c4)CC3)ncnc21,"inconclusive: 2 µM [inhibitor, full curve]",
COCCN(Cc1cccs1)S(=O)(=O)c1cc(-c2cc(C)no2)ccc1C,,inactive: -5.98%
Cn1c(=O)c(Sc2ccccc2)c(O)c2ccccc21,,inactive: -2.46%
Cc1ccccc1-c1noc(-c2ccc(N3CCCCC3)c([N+](=O)[O-])c2)n1,,inactive: -6.14%
COc1cc(NC(=O)CSc2nnc(C)n3c2cc2oc(C)cc23)cc(OC)c1,"inconclusive: 3.16 µM [inhibitor, full curve, poor fit]",
COc1ccc(N2CCN(C(=O)c3ccccc3Br)CC2)c([N+](=O)[O-])c1,"inconclusive: 31.6 µM [inhibitor, single point]",
O=C(C[n+]1cc(-c2ccc(Cl)cc2)n2c1CCC2)N1c2ccccc2Sc2ccccc21,"inconclusive: 20 µM [inhibitor, single point]",
CCOCCCN(Cc1ccco1)S(=O)(=O)c1cc2c(cc1Cl)NC(=O)CO2,,inactive: -6.67%
COc1ccc(NC(=O)COC(=O)Cc2ccc(-c3ccccc3)cc2)c(OC)c1,"inconclusive: 15.8 µM [inhibitor, partial curve]",
CCCOc1ccc(C(=O)Nc2ccc3oc(-c4ccncc4)nc3c2)cc1,"inconclusive: 0.794 µM [inhibitor, full curve, poor fit]",
CC(C)(C)OC(=O)N1CCC(NC(=O)c2[nH]cnc2C(=O)N[C@@H](Cc2ccccc2)C(=O)OCc2ccccc2)CC1,"inconclusive: 22.4 µM [inhibitor, single point]",
CCC/C(=N\NC(=O)c1cccc(C)c1)c1ccccc1,"inconclusive: 39.8 µM [inhibitor, single point]",
O=[N+]([O-])c1ccc(N2CCOCC2)cc1O,"inconclusive: 4.47 µM [inhibitor, partial curve]",
COc1ccc(Cl)cc1C(=O)Nc1ccccc1N1CCN(C(=O)C(C)C)CC1,"inconclusive: 22.4 µM [inhibitor, single point]",
Cc1ccc(C(C)C)c(OCCSc2nc(-c3ccccc3F)nc3cc(=O)[nH]n23)c1,"inconclusive: 44.7 µM [inhibitor, single point]",
CCCCc1ccc(-c2csc(/C(C#N)=C/c3ccco3)n2)cc1,"inconclusive: 14.1 µM [inhibitor, partial curve]",
Cc1ccccc1Nc1cc(C(=O)NCCCN2CCN(c3cccc(Cl)c3)CC2)c2ccccc2n1,"inconclusive: 25.1 µM [inhibitor, single point]",
CCCN(C(=O)c1cc2c(=O)oc3ccccc3c2s1)c1ccc(CC)cc1,"inconclusive: 35.5 µM [inhibitor, single point]",
C/C(=N\NC(=O)c1csc(C)c1C)c1ccco1,"inconclusive: 20 µM [inhibitor, partial curve]",
C=CCC1(C)OC=Cc2nc3cc(Cl)c(Cl)cc3nc21 (stereo not given),,inactive: -10.7% [at 11.5 µM]
CNC(=O)c1c(N)sc2c1CCCCC2,active: 17.8 µM,
Cc1[nH]c2ccccc2c1C(=O)/C=C\c1ccccc1Cl,"inconclusive: 2.82 µM [inhibitor, full curve]",
Cc1ncsc1C(=O)N1N=C2/C(=C/c3ccc(N4CCOCC4)cc3)CCCC2C1c1ccc(N2CCOCC2)cc1 (stereo not given),active: 14.1 µM,

SMILES,Potency,"activity, negative = inhibition"
COc1cccc(-c2nc(CCl)cs2)c1,"inconclusive: 17.8 µM [inhibitor, partial curve, poor fit]",
Cc1ccc(CCNS(=O)(=O)c2cc(-c3cc(C)no3)ccc2C)cc1,,inactive: 6.06%
COc1ccc(NC(=O)O/N=C2/CCCc3ccc(OC)cc32)cc1,active: 14.1 µM,
NC(=O)N/N=C\c1cc(Br)ccc1O,,inactive: -5.73%
Cn1c(=O)oc2cc(S(=O)(=O)NC(Cc3ccccc3)C(=O)Nc3ccc(F)cc3)ccc21 (stereo not given),,inactive: 4.74%
CCOC(=O)N1CCC(NC(=O)c2cc(C(=O)Nc3ccc(OCC)cc3)ccc2CO)CC1,"inconclusive: 3.98 µM [inhibitor, full curve]",
CC12CN3CC(c4ccccc4)(CN(C1)C3c1ccc(O)cc1)C2=O (stereo not given),"inconclusive: 7.94 µM [inhibitor, single point]",
CCC(CC)c1nnc(NC(=O)c2ccc3ccccc3n2)s1,"inconclusive: 25.1 µM [inhibitor, partial curve, poor fit]",
COc1ccc2[nH]cc(CCNC(C)=O)c2c1,inactive,
O=C(CCCOc1ccc(Cl)cc1Cl)n1nnc2ccccc21,,inactive: -0.783%
Cc1cc(OCCCCCn2ccnc2)cc(C)c1Cl,"inconclusive: 10 µM [inhibitor, partial curve]",
COc1cccc(OCc2nc3ccccc3n2CCOc2ccc(C)cc2)c1,"inconclusive: 5.01 µM [inhibitor, full curve, poor fit]",
NC(=O)c1sc2nc3c(c(-c4ccccc4)c2c1N)CCC3,,inactive: -18%
O=[N+]([O-])c1cc2c(cc1/C=N/n1c(-c3ccccc3)n[nH]c1=S)OCO2,"inconclusive: 5.01 µM [inhibitor, partial curve]",
C/C(=N\NC(=O)c1ccncc1)c1ccc(N(C)C)cc1,"inconclusive: 14.1 µM [inhibitor, partial curve]",
CC1CCN(c2ccc([N+](=O)[O-])cn2)CC1,"inconclusive: 28.2 µM [inhibitor, single point]",
COc1ccc(OC)c(NC(=O)CSc2ccc(-c3cccs3)nn2)c1,"inconclusive: 11.2 µM [inhibitor, partial curve]",
Cc1ccc(Cn2c(C(=O)O)c(CNCc3ccc(OC(C)C)cc3)c3ccc(C)cc32)cc1,,inactive: -11.8%
CC1CCCCN1C(=O)c1cc(F)c(F)cc1Cl (stereo not given),,inactive: 6.58%
COc1cccc(-n2c(=O)c3c(C)c(C)sc3n(CC(=O)NCCc3ccc(OC)c(OC)c3)c2=O)c1,,inactive: -2.66%
CN1Cc2cc(C(=O)c3cc(Cl)cc(CSc4ncccn4)c3O)cnc2NC1=O,"inconclusive: 20 µM [inhibitor, partial curve]",
Cc1c(Cl)ccc2sc(N3CCN(C(=O)C(C)C)CC3)nc12,"inconclusive: 14.1 µM [inhibitor, partial curve]",
